Changes are numbered by the printed parent chain.
B1: anti-CLDN18.2 heavy-chain antibody NA3SH1-T4 (Fc fusion)
heavy: QVQLVESGGGLVQPGGSLRLSCAASGSIFHIPVMGWYRQAPGKQRELVAGISRGGTTNYGDSVKGRFTISRDNAKNTVYLQMNSLKPEDTAVYYCNVLVVSGIGSTLEVWGQGTLVTVSS[sequence of human IgG1 Fc omitted]
notes: no light chain
B2: anti-CLDN18.2 heavy-chain antibody NA3SH1 (Fc fusion)
heavy: B1 heavy with H30N, R53T
notes: no light chain; also called control heavy-chain antibody NA3SH1; heavy-chain antibody NA3SH1 as a control
B3: anti-CLDN18.2 heavy-chain antibody NA3SH1-T4-hVH6 (Fc fusion)
heavy: B1 heavy with Q44G, R45L, G60A, V78L, K86R, P87A
notes: no light chain

Columns and labels:
human CLDN18.2 [1] = target: T1, human CLDN18.2 (human); assay: flow cytometry (FACS) on hCLDN18.2-NUGC4 cells
T1 construct: Full-length human CLDN18.2 overexpressed on HEK293, NUGC4 and KATOIII cells; also called hCLDN18.2
Method: (§1) hCLDN18.2-NUGC4 cells in the exponential growth phase were collected, centrifuged at 300 g to remove the supernatant; the cells were resuspended in FACS buffer (PBS containing 1% BSA) and counted and the cell suspension density was adjusted to 2×10⁶ cells/mL. Subsequently, hCLDN18.2-NUGC4 cells were added into a 96-well round-bottom plate at 100 μL per well, and centrifuged at 300 g to remove the supernatant. Different concentrations of heavy-chain antibody NA3SH1-T4, heavy-chain antibody NA3SH1-T4-hVH6, heavy-chain antibody NA3SH1 as a control, and human IgG1 isoform antibody as an isoform control were added to the corresponding wells. The cells were resuspended and placed at 4° C. for incubation for 1 h. The incubated cell mixture was washed 3 times, PE-labeled anti-human-IgG-Fc flow cytometry antibody (Abcam, catalog number: 98596) was add, resuspended and placed at 4° C. for incubation for 30 minutes. The incubated cell mixture was washed 3 times, 200 μL of FACS buffer was added to resuspend the cells, and finally detected and analyzed by a flow cytometer (Beckman, CytoFLEX AOO-1-1102). Data were analyzed using PRISM™ (GraphPad Software, San Diego, CA), and EC₅₀ values were calculated.

human CLDN18.2 [2] = target: T1, human CLDN18.2; assay: flow cytometry (FACS) on hCLDN18.2-KATOIII cells
human CLDN18.2 [3] = target: T1, human CLDN18.2; assay: flow cytometry (FACS) on hCLDN18.2-HEK293 cells
Method: as §1, with “hCLDN18.2-HEK293” for “hCLDN18.2-NUGC4”

T1 sequence (chain, as listed by the source limits assumed): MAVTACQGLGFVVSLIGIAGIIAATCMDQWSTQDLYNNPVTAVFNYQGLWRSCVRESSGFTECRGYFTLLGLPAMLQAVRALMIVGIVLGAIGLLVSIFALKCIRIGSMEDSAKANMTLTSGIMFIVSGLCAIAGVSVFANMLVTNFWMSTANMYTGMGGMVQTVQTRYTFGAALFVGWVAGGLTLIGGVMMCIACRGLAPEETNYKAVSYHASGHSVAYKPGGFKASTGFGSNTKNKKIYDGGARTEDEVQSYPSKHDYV

Binder | EC50 (human CLDN18.2 [1]) | EC50 (human CLDN18.2 [2]) | EC50 (human CLDN18.2 [3])
B1 | 0.405 µg/mL | 0.33 µg/mL | 0.274 µg/mL
B2 | 2.15 µg/mL | 0.618 µg/mL | 0.536 µg/mL
B3 | 0.847 µg/mL | 0.398 µg/mL | 0.31 µg/mL

Source: patent US20240247060A1 (SANYOU BIOPHARMACEUTICALS, published 2024)
